Seven molecules from paper PMC10526779 can be followed below.

Where a chain is given by its changes, count along the chain named. Names may count otherwise. These are yes or no findings as the source states them, for the method shown. Binding seen in cells or lysates may run through a third protein. Some entries that bind do so weakly or less than the wild type. Sequences can lack the tags named with a protein.

First the molecules themselves.
B1: 35S-methionine-labeled wild-type Centrobin, full length (protein, UniProt Q8N137-1 1-903)
chain: MATSADSPSSPLGAEDLLSDSSEPPGLNQVSSEVTSQLYASLRLSRQAEATARAQLYLPSTSPPHEGLDGFAQELSRSLSVGLEKNLKKKDGSKHIFEMESVRGQLQTMLQTSRDTAYRDPLIPGAGSERREEDSFDSDSTATLLNTRPLQDLSPSSSAQALEELFPRYTSLRPGPPLNPPDFQGLRDALDSEHTRRKHCERHIQSLQTRVLELQQQLAVAVAADRKKDTMIEQLDKTLARVVEGWNRHEAERTEVLRGLQEEHQAAELTRSKQQETVTRLEQSLSEAMEALNREQESARLQQRERETLEEERQALTLRLEAEQQRCCVLQEERDAARAGQLSEHRELETLRAALEEERQTWAQQEHQLKEHYQALQEESQAQLEREKEKSQREAQAAWETQHQLALVQSEVRRLEGELDTARRERDALQLEMSLVQARYESQRIQLESELAVQLEQRVTERLAQAQESSLRQAASLREHHRKQLQDLSGQHQQELASQLAQFKVEMAEREERQQQVAEDYELRLAREQARVCELQSGNQQLEEQRVELVERLQAMLQAHWDEANQLLSTTLPPPNPPAPPAGPSSPGPQEPEKEERRVWTMPPMAVALKPVLQQSREARDELPGAPPVLCSSSSDLSLLLGPSFQSQHSFQPLEPKPDLTSSTAGAFSALGAFHPDHRAERPFPEEDPGPDGEGLLKQGLPPAQLEGLKNFLHQLLETVPQNNENPSVDLLPPKSGPLTVPSWEEAPQVPRIPPPVHKTKVPLAMASSLFRVPEPPSSHSQGSGPSSGSPERGGDGLTFPRQLMEVSQLLRLYQARGWGALPAEDLLLYLKRLEHSGTDGRGDNVPRRNTDSRLGEIPRKEIPSQAVPRRLATAPKTEKPPARKKSGHPAPSSMRSRGGVWR
modifications: 35S-methionine-labeled
B2: 35S-methionine-labeled CNTRB-S781A, full length (protein, UniProt Q8N137-1 1-903)
chain: B1 chain with S781A
modifications: 35S-methionine-labeled
B3: 35S-methionine-labeled CNTRB-ARVA, full length (protein, UniProt Q8N137-1 1-903)
chain: B1 chain with F771A, P774A
modifications: 35S-methionine-labeled
B4: 35S-methionine-labeled CNTRB-S781D, full length (protein, UniProt Q8N137-1 1-903)
chain: B1 chain with S781D
modifications: 35S-methionine-labeled
B5: Flag-CNTRB^180-903aa-S781A (domain or fragment, UniProt Q8N137-1 180-903)
chain: PPDFQGLRDALDSEHTRRKHCERHIQSLQTRVLELQQQLAVAVAADRKKDTMIEQLDKTLARVVEGWNRHEAERTEVLRGLQEEHQAAELTRSKQQETVTRLEQSLSEAMEALNREQESARLQQRERETLEEERQALTLRLEAEQQRCCVLQEERDAARAGQLSEHRELETLRAALEEERQTWAQQEHQLKEHYQALQEESQAQLEREKEKSQREAQAAWETQHQLALVQSEVRRLEGELDTARRERDALQLEMSLVQARYESQRIQLESELAVQLEQRVTERLAQAQESSLRQAASLREHHRKQLQDLSGQHQQELASQLAQFKVEMAEREERQQQVAEDYELRLAREQARVCELQSGNQQLEEQRVELVERLQAMLQAHWDEANQLLSTTLPPPNPPAPPAGPSSPGPQEPEKEERRVWTMPPMAVALKPVLQQSREARDELPGAPPVLCSSSSDLSLLLGPSFQSQHSFQPLEPKPDLTSSTAGAFSALGAFHPDHRAERPFPEEDPGPDGEGLLKQGLPPAQLEGLKNFLHQLLETVPQNNENPSVDLLPPKSGPLTVPSWEEAPQVPRIPPPVHKTKVPLAMASSLFRVPEPPSSHAQGSGPSSGSPERGGDGLTFPRQLMEVSQLLRLYQARGWGALPAEDLLLYLKRLEHSGTDGRGDNVPRRNTDSRLGEIPRKEIPSQAVPRRLATAPKTEKPPARKKSGHPAPSSMRSRGGVWR
B6: Flag-CNTRB^180-903aa (domain or fragment, UniProt Q8N137-1 180-903)
chain: B5 chain with A602S
B7: Flag-CNTRB^180-903aa-S781D (domain or fragment, UniProt Q8N137-1 180-903)
chain: B5 chain with A602D

The target in one assay is T1, GST-R3B (glutathione S-transferase fused recombinant full-length PPP4R3B) (human) (UniProt Q5MIZ7).
T1 sequence: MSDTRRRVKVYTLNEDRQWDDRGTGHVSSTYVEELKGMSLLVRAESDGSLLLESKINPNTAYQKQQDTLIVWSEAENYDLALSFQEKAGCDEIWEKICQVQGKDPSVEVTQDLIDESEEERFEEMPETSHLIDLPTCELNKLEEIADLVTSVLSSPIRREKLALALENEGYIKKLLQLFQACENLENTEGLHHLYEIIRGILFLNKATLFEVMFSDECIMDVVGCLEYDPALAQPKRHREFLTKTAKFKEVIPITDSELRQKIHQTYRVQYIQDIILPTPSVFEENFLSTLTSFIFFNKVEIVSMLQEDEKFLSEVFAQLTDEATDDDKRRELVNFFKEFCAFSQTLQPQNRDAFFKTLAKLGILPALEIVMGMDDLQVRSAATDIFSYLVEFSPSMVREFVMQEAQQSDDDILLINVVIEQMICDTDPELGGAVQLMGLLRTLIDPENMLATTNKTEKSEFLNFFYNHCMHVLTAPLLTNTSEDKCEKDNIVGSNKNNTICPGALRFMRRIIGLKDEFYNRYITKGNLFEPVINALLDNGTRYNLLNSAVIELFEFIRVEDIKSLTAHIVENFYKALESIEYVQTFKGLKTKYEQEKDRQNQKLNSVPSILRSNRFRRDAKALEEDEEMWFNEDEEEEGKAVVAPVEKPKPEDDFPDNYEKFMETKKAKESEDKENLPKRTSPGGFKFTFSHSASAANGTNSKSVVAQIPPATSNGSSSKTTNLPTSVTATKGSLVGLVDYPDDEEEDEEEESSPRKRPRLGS
The assay can be described thus: pull-down; GST-IVTT assay: GST-R3A or GST-R3B immobilized on glutathione beads (bait), 35S-methionine-labeled CNTRB from IVTT (prey); 50 mM HEPES pH 7.5, 150 mM NaCl, 2 mM MgCl2, 1 mM EGTA, 1 mM DTT, 0.1% Triton X-100, 0.5% BSA; 4 °C, 2 h; autoradiography; only the target purified.
On to B1, for which the binding result is recorded as “binds”.
Still for that read-out and setting: for B2 the value was “binds”; for B3, “no binding”; for B4, “binds”.

The next assay addresses T2, GST-R3A (glutathione S-transferase fused recombinant full-length PPP4R3A) (human) (UniProt Q6IN85).
T2 sequence: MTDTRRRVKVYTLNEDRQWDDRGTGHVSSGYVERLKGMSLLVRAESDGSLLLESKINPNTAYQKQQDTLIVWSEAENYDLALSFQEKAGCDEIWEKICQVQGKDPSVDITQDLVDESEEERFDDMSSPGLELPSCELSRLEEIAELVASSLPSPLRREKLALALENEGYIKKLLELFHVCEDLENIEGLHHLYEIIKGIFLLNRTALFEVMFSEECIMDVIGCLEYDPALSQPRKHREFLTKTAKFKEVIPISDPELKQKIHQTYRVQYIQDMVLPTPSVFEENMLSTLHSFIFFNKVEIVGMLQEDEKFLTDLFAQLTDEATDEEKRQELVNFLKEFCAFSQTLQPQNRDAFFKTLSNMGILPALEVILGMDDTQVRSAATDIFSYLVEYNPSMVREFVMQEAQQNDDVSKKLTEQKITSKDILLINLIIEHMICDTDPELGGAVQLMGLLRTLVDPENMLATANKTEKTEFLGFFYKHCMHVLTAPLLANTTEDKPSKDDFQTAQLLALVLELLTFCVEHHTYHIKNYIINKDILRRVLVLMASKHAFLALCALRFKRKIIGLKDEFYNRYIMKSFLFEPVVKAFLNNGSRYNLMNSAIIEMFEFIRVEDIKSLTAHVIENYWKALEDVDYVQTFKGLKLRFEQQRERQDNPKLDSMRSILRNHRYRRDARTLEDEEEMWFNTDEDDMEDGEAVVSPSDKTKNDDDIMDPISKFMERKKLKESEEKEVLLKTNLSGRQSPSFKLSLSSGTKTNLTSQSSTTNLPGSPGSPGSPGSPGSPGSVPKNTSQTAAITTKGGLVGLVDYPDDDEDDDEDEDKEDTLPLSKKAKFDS
The assay is described as above.
Consider B1, for which the binding entry is reported as “binds”.
Still for that read-out and setting: next, B2: “binds”; B3: “no binding”; B4: “binds”.

The target of the next assay is T3, GFP-R3A (human) (UniProt Q6IN85).
T3 sequence: T2 sequence
Nature of the assay: co-IP; GFP-trap magnetic agarose beads on cleared lysates of HEK293 cells co-transfected with GFP-R3A or GFP-R3B and Flag-CNTRB^180-903aa variants; 50 mM Tris pH 7.6, 50 mM NaCl, 0.1% NP-40; 90 min at 4 °C; immunoblot with anti-FlagM2 and anti-GFP. Background: In western blotting, separated proteins are transferred to a membrane and probed.
On to B5, for which the binding entry is reported as “binds”.
Still for that read-out and setting: for B6 the value was “binds”; for B7, “binds”.

The next assay addresses T4, GFP-R3B (human) (UniProt Q5MIZ7).
T4 sequence: T1 sequence
The description is as above.
B5: the binding entry is “binds”.
On the same count and under the same terms, next, B6: “binds”; B7: “binds”.
